Laboratory results: patent publication US11149077B2, “Targeted therapeutics based on engineered proteins for tyrosine kinases receptors, including IGF-IR” (BRISTOL-MYERS SQUIBB COMPANY, priority 2006, dated 2021)

Assays:
[1] = test system: Rh41 human rhabdomyosarcoma cells; test: Cellular proliferation in Rh41 cells, [3H]-thymidine incorporation; type: cell-based
Method: (§1) Proliferation was evaluated by incorporation of [3H]-thymidine into DNA after a 72 hour exposure to reagents. Rh41 cells were plated at a density of 3500 and H929 at 8000 cells/well, respectively, in 96-well microtiter plates and 24 hours later they were exposed to a range of drug concentrations. After 72 hours incubation at 37° C., cells were pulsed with 4 μCi/ml [3H] thymidine (Amersham Pharmacia Biotech, UK) for 3 hours, trypsinized, harvested onto UniFilter-96, GF/B plates (PerkinElmer, Boston, Mass.) and scintillation was measured on a TopCount.NXT (Packard, Conn.).

[2] = test system: H929 human multiple myeloma cells; test: Cellular proliferation in H929 cells, [3H]-thymidine incorporation; type: cell-based; settings: H929 Assay
Method: as §1

B1: 385A08-Fc: 385A08 (SEQ ID NO: 226) joined by a spacer to an Fc fragment (Hinge-CH2-CH3), expressed in pichia (protein)
chain: GVSDVPRDLEVVAATPTSLLISWSARLKVARYYRITYGETGGNSPVQEFTVPKNVYTATISGLKPGVDYTITVYAVTRFRDYQPISINYRTEIDKPSQDPGS[human IgG1 Fc with changes not written out]
[^3H] incorporation ([1]; Rh41 Trial 1, 0.016 nM): 101.2 | [^3H] incorporation ([1]; Rh41 Trial 1, 0.08 nM): 102.9 | [^3H] incorporation ([1]; Rh41 Trial 1, 0.4 nM): 97.1 | [^3H] incorporation ([1]; Rh41 Trial 1, 2.0 nM): 77.9 | [^3H] incorporation ([1]; Rh41 Trial 1, 10.0 nM): 61.9 | [^3H] incorporation ([1]; Rh41 Trial 1, 50 nM): 54.9 | [^3H] incorporation ([1]; Rh41 Trial 2, 0.016 nM): 102.5 | [^3H] incorporation ([1]; Rh41 Trial 2, 0.08 nM): 98.4 | [^3H] incorporation ([1]; Rh41 Trial 2, 0.4 nM): 94.6 | [^3H] incorporation ([1]; Rh41 Trial 2, 2.0 nM): 78.6 | [^3H] incorporation ([1]; Rh41 Trial 2, 10.0 nM): 59.3 | [^3H] incorporation ([1]; Rh41 Trial 2, 50 nM): 52.1 | maximum inhibition ([1]; Rh41 cell line): 91% | [^3H] incorporation ([2]; 0.016 nM): 80.1 | [^3H] incorporation ([2]; 0.08 nM): 57.1 | [^3H] incorporation ([2]; 0.4 nM): 32.0 | [^3H] incorporation ([2]; 2.0 nM): 20.6 | [^3H] incorporation ([2]; 10.0 nM): 18.4 | [^3H] incorporation ([2]; 50 nM): 20.2
